Measurements as given in PubChem BioAssay AID1159614 (National Center for Advancing Translational Sciences (NCATS), 2016).
Among all 45,000 compounds or so, about 65 (0.1%) were called active. Calls follow the shape of the dose curve; as a rule, active = well fitted activation curve with a large enough effect; inconclusive = small, poorly fitted or top-dose-only effect; inactive = no such curve, though single readings can be large or run the other way. This is one part of the list.

Target: Galactocerebrosidase (Homo sapiens) (UniProt P54803)
Chain of UniProt P54803 (P54803 whole entry, looked up): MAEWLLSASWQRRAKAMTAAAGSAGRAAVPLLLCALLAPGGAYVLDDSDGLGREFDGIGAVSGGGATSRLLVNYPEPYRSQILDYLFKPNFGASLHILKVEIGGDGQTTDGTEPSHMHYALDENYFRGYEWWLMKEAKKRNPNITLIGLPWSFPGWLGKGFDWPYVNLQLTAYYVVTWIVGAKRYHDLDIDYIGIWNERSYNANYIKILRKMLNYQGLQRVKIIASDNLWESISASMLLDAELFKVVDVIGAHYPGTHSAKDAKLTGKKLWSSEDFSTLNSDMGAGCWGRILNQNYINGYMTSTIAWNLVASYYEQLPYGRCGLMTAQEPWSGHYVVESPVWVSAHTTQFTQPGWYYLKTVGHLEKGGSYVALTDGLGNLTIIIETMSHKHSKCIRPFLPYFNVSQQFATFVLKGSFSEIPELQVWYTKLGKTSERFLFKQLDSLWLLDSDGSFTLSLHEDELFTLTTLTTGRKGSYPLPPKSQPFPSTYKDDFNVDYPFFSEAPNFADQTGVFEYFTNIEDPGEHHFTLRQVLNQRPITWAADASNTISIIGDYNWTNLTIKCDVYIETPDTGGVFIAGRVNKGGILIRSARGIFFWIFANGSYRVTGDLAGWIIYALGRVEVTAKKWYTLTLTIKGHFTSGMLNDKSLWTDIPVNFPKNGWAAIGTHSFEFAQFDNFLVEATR
Experiment: A Novel Cell-Based Assay to Identify Small Molecules for B -Galactocerebrosidase; also: 0% is about no effect; nearly all actives have a fitted effect of over 65% in size
Settings: 145M-Twi-hGALC-G270D cells (Twitcher mouse brain line with human GALC G270D), HMU-beta-Gal fluorescence, 48 h; series mostly up to 57.5 µM; activation: at the top concentration
In short: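 Fluorescence readout: HMU-β-gal cleavage by mutant GALC (0.1 mM final, citrate/phosphate pH 5.2 with 1 mg/mL taurocholate), stopped with carbonate/bicarbonate plus Triton X-100. Cells: murine Twitcher 145M-Twi expressing human G270D GALC; qHTS for activators.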

activation, inactive:
COc1ccc(S(=O)(=O)N2CCC(c3ccncc3)CC2)cc1OC -6.67%
Cc1ccc(N2C(=O)NC(NS(=O)(=O)c3ccc(Cl)cc3)(C(F)(F)F)C2=O)cc1C (stereo unspecified) -14.3%
O=C(c1ccco1)n1nc(-c2ccc(Cl)cc2)nc1NCc1ccccc1 -19.4%
Cc1ccc(NC(=O)C2CCCN2S(=O)(=O)c2ccc3nc(-c4ccccc4)[nH]c3c2)cc1F (stereo unspecified) 6.23%
CCOc1ccc(OCC)c(NC(=O)C2CCN(S(=O)(=O)c3cn(C)cn3)CC2)c1 -11.8%
CSc1ccc(CCNC(=O)Cn2ncc3c(=O)oc4ccccc4c32)cc1 -14.6%
COCCNC(=O)CSc1cn(CC(=O)N2CCCCCC2)c2ccccc12 8.29%
Cc1ccn2c(Nc3ccc(F)cc3)c(-c3ccccn3)nc2c1 -6.72%
COc1ccc(OC)c(Nc2ncnc3c2cnn3-c2cccc(Cl)c2)c1 -15.4%
Cc1ccc(C)c(CSc2ccc3nnc(CCNS(=O)(=O)c4ccccc4)n3n2)c1 -12.3%
CCCCC(=O)OC1=C(C(C)=O)N(Cc2ccccc2)S(=O)(=O)c2ccccc21 -4.39%
O=C(Cn1nc(-c2ccccc2)nc(Cc2ccccc2)c1=O)Nc1ccccc1 -4.93%
CCNC(=O)c1c(NC(=O)Cc2coc3cc(C)ccc23)sc2c1CCCC2 10.9%
CCn1cc(C(=O)N2CCN(c3ccccc3)CC2)c(=O)c2cc(S(=O)(=O)N3CCCC3)ccc21 -18.4%
COc1cccc(C(=O)Nc2nc3nc(C)c(C)c(=O)n3[nH]2)c1 -3.72%
CCOc1ccc(S(=O)(=O)Nc2cccc(C)c2)c2cccnc12 13.2%
O=C(Nc1c(O)c2ccccc2oc1=O)c1cccc(F)c1 -5.67%
CCc1ccccc1NC(=O)Cc1cn(C)c2ccccc12 -18.1%
Cc1ccc(Nc2ncnc3onc(C)c23)cc1Cl -9.66%
COC(=O)c1ccccc1NC(=O)C1(c2cccs2)CCOCC1 5.03%
CCCCOC(=O)c1ccc(NC(=O)Cc2coc3c(C)c(C)ccc23)cc1 -10.6%
CCC1(c2cnc[nH]2)Cc2ccccc2C1 -15%
CCNC(=O)C1CCCN(c2nnc(C)c3c(C)n(-c4ccc(C)cc4)nc23)C1 (stereo unspecified) -13.1%
Cc1ccc(OCC(=O)N(Cc2ccco2)c2ccccn2)cc1 -14.6%
CCOC(=O)c1c(C)[nH]c(C)c1S(=O)(=O)N1CCCC(C(=O)Nc2ccc(C)c(N(C)C)c2)C1 (stereo unspecified) -1.33%
CCOC(=O)c1[nH]c(C)c(CCC(=O)NCc2cccc(C)c2)c1C -14.1%
Cc1cc(C)cc(NC(=O)c2ccc3c(O)c(S(=O)(=O)c4ccccc4)c(=O)[nH]c3c2)c1 -23.1%
Cc1c(Cl)cccc1NC(=O)CSc1ncc(S(=O)(=O)c2ccc(C(C)C)cc2)c(=O)[nH]1 -3.99%
COc1cc(Cl)c(C)cc1NC(=O)c1ccc(CN2C(=O)CCn3nc(C)cc32)cc1 15.3%
COc1ccc(CCNS(=O)(=O)c2ccc(F)c(C(=O)Nc3ccc(Cl)cc3)c2)cc1OC 8.64%
Cc1ccc(-c2nnc(Nc3ccc(Cl)c(Cl)c3)c3ccccc23)cc1S(=O)(=O)N(C)C -20.8%
Cc1ccc(C(=O)N2CCN(c3ccc(F)cc3)CC2)cc1NC(=O)c1nsc2ccccc12 -5.25%
CCC(=O)N1CCc2cc(CNC(=O)Nc3cc(C)ccc3C)ccc21 3.32%
Oc1c(C(c2ccccc2Cl)N2CCOCC2)sc2nc(-c3ccco3)nn12 (stereo unspecified) -10.8%
Cc1cccc(CNC(=O)CN2C(=O)C3CCCCN3c3ccc(C(=O)N4CCCC4)cc32)c1 (stereo unspecified) -5.76%
CC(=O)c1cccc(NC(=O)Cn2c(=O)oc3cc(S(=O)(=O)NC4CCCC4)ccc32)c1 -41.2%
CC(=O)c1ccc(Nc2nc3ccccc3nc2-n2nc(C)cc2C)cc1 -9.5%
CC(=O)N1CCN(c2nc3c(C)ccc(Cl)c3s2)CC1 -11.9%
O=C(CSCc1ccccc1Cl)NCc1ccc(Cl)c(Cl)c1 -12.3%
Cc1nc(-n2nc(C)c(Cc3ccc(Cl)cc3)c2C)sc1C(=O)N1CCCCC1C (stereo unspecified) -34.3%
COc1cccc(NC(=O)CSc2nccn2Cc2ccc3c(c2)OCO3)c1 -9.28%
Cc1ccc(C)c(Cn2c3ccccc3c3cnn(CC(=O)NCC(C)c4ccccc4)c(=O)c32)c1 (stereo unspecified) -12.3%
Cc1ccc(NC(=O)CN2C(=O)CC(c3ccc(F)cc3)=Nc3ccccc32)cc1F -26.1%
COc1ccc(CN(C(=O)Nc2cccc(OC)c2)C2CCN(C(C)=O)CC2)cc1 -4.55%
COc1ccc(OC)c(NC(=O)C(C)n2nc(C)c3c(C)n(-c4ccccc4)nc3c2=O)c1 (stereo unspecified) -2.03%
COc1cccc(CNC(=O)CN2C(=O)N(c3c(C)cccc3C)S(=O)(=O)c3ccccc32)c1OC -6.19%
COc1ccc(C2c3c(oc4ccc(Cl)cc4c3=O)C(=O)N2CCCN(C)C)cc1OC (stereo unspecified) -11.1%
CCOc1ccccc1Nc1nc(-c2ccc(C)cc2)c(CC(=O)O)s1 -19.9%
O=c1[nH]c2ccc(NCc3ccc(-c4ccc(Cl)cc4)o3)cc2[nH]1 -5.77%
COc1ccc(/C=C\c2onc(C)c2S(=O)(=O)N2CCC(C(=O)Nc3cccc(C)c3C)CC2)cc1 -10.4%
CCOc1ccc(NC(=O)Cn2nnc(C(=O)NCc3cccs3)c2N)cc1 -7.89%
COc1ccc2c(c1)CCc1c(C(=O)Nc3c(C)nn(Cc4ccc(Cl)cc4)c3C)noc1-2 -23.8%
CC[N+](C)(CC)CCOC(=O)C(O)(c1ccccc1)C1CCCCC1 (stereo unspecified) -15.1%
CNC(=O)c1ccc(CSc2nc3cccnc3n2Cc2cccc(F)c2)cc1 -15.4%
CCc1ccc(-c2nc(SCC(=O)NCC3CCCO3)c(-c3ccc(F)cc3)[nH]2)cc1 (stereo unspecified) -21.1%
CC1=C(c2ccc(C)c(C)c2)S(=O)(=O)N=C1N1CCC(C(=O)Nc2ccc(Cl)cc2)CC1 17.9%
CCc1nn(CC(=O)N2CCN(c3cc(C)ccc3C)CC2)c(=O)c2cc3occc3n12 -11.1%
COc1ccc(CCNc2nc(SCc3ccc(F)cc3)nc3ccccc23)cc1OC -7.35%
Fc1ccccc1N1CCN(c2ncc3c(n2)CCN(Cc2ccc(Br)s2)C3)CC1 -17.4%
COc1ccccc1CCNC(=O)C(=O)NCC(c1cccs1)S(=O)(=O)c1ccc(F)cc1 (stereo unspecified) -5.87%
CC(Oc1ccccc1)C(=O)OCc1cc(=O)n2nc(C(C)C)sc2n1 (stereo unspecified) -12.7%
Cc1ccc2nc(-c3cccc(Cl)c3)c(Nc3ccc4c(c3)OCO4)n2c1 -15.1%
Cc1ccc(C)c(NC(=O)N2CCc3cc(S(=O)(=O)N4CCC(C)CC4)ccc32)c1 -14.3%
COc1ccccc1NC(=O)Cn1cc(C(=O)c2ccncc2)c(=O)c2cc(C)ccc21 -6.68%
Cc1cc(=O)[nH]c2nnc(SCC(=O)Nc3ccc(F)cc3F)n12 -13.3%
COc1ccc(Cl)cc1NC(=O)C1CCN(S(=O)(=O)c2ccc3c(c2)CCCN3C(=O)C2CCC2)CC1 -18.6%
CCc1ccc(S(=O)(=O)c2nnn3c2nc(NCc2cccc(OC)c2)c2cc(Cl)ccc23)cc1 -19.8%
O=C(Nc1cccc(-c2nc3ccccc3[nH]2)c1)c1ccccc1F -7.22%
Cc1ccsc1CN(C(=O)c1ccc(Br)cc1)C1CCS(=O)(=O)C1 (stereo unspecified) -5.91%
COc1ccccc1CNC(=O)c1ccc2c(c1)nnn2C1CCCC1 -8.9%
Cc1ccc(NC(=O)N2CCN3CCCCC3C2)cc1F (stereo unspecified) -10.9%
CCCC(CCC)C(=O)Nc1nnc2n1CCS2 -0.569%
CN(C)c1ccc(-c2noc(C3CC(=O)N(c4ccc5c(c4)OCCO5)C3)n2)cc1 (stereo unspecified) -12%
O=C(Nc1ccc(Cl)cc1)c1cc2c(Cl)nc3ccccc3c2s1 13.9%
Cc1cccc(N(C)C(=O)c2cc(S(=O)(=O)N3CCCCC3)c[nH]2)c1 -4.97%
COc1ccc(NC(=O)c2cc(S(=O)(=O)N3CCCCC3)cn2C)cc1Cl -1.19%
O=C(Nc1ccc(S(=O)(=O)N2CCCCC2c2cccnc2)cc1)c1ccc(F)cc1 (stereo unspecified) -25.3%
COc1ccc(-c2c3c(nc4sc(C(=O)Nc5ccccc5F)c(N)c24)CC(C)(C)CC3=O)cc1 -10.5%
CCc1ccc(CNC(=O)c2nn(-c3ccc(OC)c(Cl)c3)c(=O)c3c2c2ccccc2n3C)cc1 -15%
CCN(Cc1ccccc1)C(=O)CN1C(=O)CSc2ccc(S(=O)(=O)N(CC)CC)cc21 -10.6%
COc1ccccc1C(=O)N1c2ccccc2C(C)(c2ccc(Cl)cc2)CC1(C)C (stereo unspecified) -26.2%
COc1cc(C(=O)OCCCN2CCCN(CCCOC(=O)c3cc(OC)c(OC)c(OC)c3)CC2)cc(OC)c1OC -11.5%
COC(=O)CSc1nc2sc3c(c2c(=O)n1Cc1ccccc1)CCC(C(C)(C)C)C3 (stereo unspecified) -5.44%
COc1ccc(-c2nn(CC(=O)NCc3ccccc3)c3c2cnc2ccc(F)cc23)cc1 -17.8%
CCOc1ccccc1NC(=O)CN1C(=O)COc2ccc(S(=O)(=O)Nc3ccccc3)cc21 -2.57%
Cc1ccc(NC(=O)C2CCCN(S(=O)(=O)c3ccc4[nH]c(=O)ccc4c3)C2)cc1C (stereo unspecified) -10.4%
O=C(NCc1cccs1)c1nn(-c2ccccc2F)nc1CO -13%
CCCCNC(=O)Cn1ncc2c(C)n(Cc3cccc(Cl)c3)c(C)c2c1=O -12.1%
CCCCN(C)CCCNC(=O)CN1C(=O)CSc2ccc(S(=O)(=O)N3CCOCC3)cc21 -15.6%
Cc1ccc(-c2nc3nc(C)cc(N4CCN(c5cccc(C)c5)C(C)C4)n3n2)cc1 (stereo unspecified) -19.7%
O=C(Cn1c(=O)nc(-c2ccccc2F)c2cc(Cl)ccc21)Nc1ccccc1C(F)(F)F -14.8%
Cc1ccccc1CN1c2ccccc2-c2nc(SCC(=O)Nc3cc(F)ccc3F)ncc2S1(=O)=O -6.41%
Cc1cc(C)c(NC(=O)CN2C(=O)CCn3nc(-c4cccn4C)cc32)c(C)c1 -8.1%
Cc1ccc(-n2ncc(C(=O)NCCCN3CCN(C)CC3)c2C2CCN(C(=O)OC(C)(C)C)CC2)cc1 -7.15%
Cc1ccc(Cl)cc1NC(=O)c1cc(-c2ccc3c(c2)OCCO3)on1 -4.53%
O=C(Cc1ccc(NC(=O)N2CCCCc3ccccc32)cc1)Nc1ccccc1Br 3.7%
